{
  "source": "a collection of fitness landscapes (doi:10.1016/j.celrep.2020.107928)",
  "parents": {"B1": {"name": "Caulobacter ParB omega fusion; a variant is named by its letters at X, in order, B8GW30 (parent)", "chain": "MESVVVGEPGMSEGRRGLGRGLSALLGEVDAAPAQAPGEQLGGSREAPIEILQRNPDQPRRTFREEDLEDLSNSIREKGVLQPILVRPSPDTAGEYQIVAGERAWRAAQRAGLKTVPIMVRELDDLAVLEIGIIENVQRADLNVLEEALSYKVLMEKFERTQENIAQTIGKSXSHVANXMRLLXLPDEVQSYLVSGELTAXHARAIAAAADPVALAKQIIEGGLSVRETEALARKAPNLSAGKSKGGRPPRVKDTDTQALESDLSSVLGLDVSIDHRGSTGTLTITYATLEQLDDLCNRLTRGI"}},
  "note": "Whole data set: some 81,000 sequences, median “one-hybrid fitness for binding parS DNA” near -0.17, cut for the highest 2% near 0.51. Some of the results follow.",
  "data": [
    {"variants_of": "B1", "test": "one-hybrid fitness for binding parS DNA (scaled: cognate 1, non-cognate 0); higher = stronger binding", "settings": "with parS DNA site", "in_short": "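Pre- and post-selection plasmids were Illumina-sequenced, three replicate libraries were pooled, and any variant with under 10 reads was removed. The libraries were Caulobacter ParB with four specificity codons randomised, selected in E. coli USO through a HIS3 reporter whose site is 19 bp from the promoter. Cells grew 48 hours at 37°C on M9 without histidine, with 0.1 mM IPTG and 5 mM 3-AT. Fitness is the log change in variant-to-wild-type read ratio, rescaled against cognate and non-cognate.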", "values": [
      {"variant": "YQMG", "one-hybrid fitness for binding parS DNA": "≤ 0.2"},
      {"variant": "AMTC", "one-hybrid fitness for binding parS DNA": "≤ 0.2"},
      {"variant": "GDGR", "one-hybrid fitness for binding parS DNA": "≤ 0.2"},
      {"variant": "NEGY", "one-hybrid fitness for binding parS DNA": 0.244},
      {"variant": "EFDL", "one-hybrid fitness for binding parS DNA": "≤ 0.2"},
      {"variant": "THPS", "one-hybrid fitness for binding parS DNA": "≤ 0.2"},
      {"variant": "DGNP", "one-hybrid fitness for binding parS DNA": "≤ 0.2"},
      {"variant": "TANL", "one-hybrid fitness for binding parS DNA": "≤ 0.2"},
      {"variant": "PEDT", "one-hybrid fitness for binding parS DNA": "≤ 0.2"},
      {"variant": "KPVV", "one-hybrid fitness for binding parS DNA": "≤ 0.2"},
      {"variant": "VLIK", "one-hybrid fitness for binding parS DNA": "≤ 0.2"},
      {"variant": "RSSA", "one-hybrid fitness for binding parS DNA": 0.583},
      {"variant": "WPNG", "one-hybrid fitness for binding parS DNA": "≤ 0.2"},
      {"variant": "PDTQ", "one-hybrid fitness for binding parS DNA": "≤ 0.2"},
      {"variant": "SRWV", "one-hybrid fitness for binding parS DNA": "≤ 0.2"},
      {"variant": "TPFW", "one-hybrid fitness for binding parS DNA": "≤ 0.2"},
      {"variant": "RLQA", "one-hybrid fitness for binding parS DNA": 0.616},
      {"variant": "MRIC", "one-hybrid fitness for binding parS DNA": "≤ 0.2"},
      {"variant": "GSHR", "one-hybrid fitness for binding parS DNA": "≤ 0.2"},
      {"variant": "WYGS", "one-hybrid fitness for binding parS DNA": "≤ 0.2"},
      {"variant": "LPTM", "one-hybrid fitness for binding parS DNA": "≤ 0.2"},
      {"variant": "RTVS", "one-hybrid fitness for binding parS DNA": 1},
      {"variant": "RNQM", "one-hybrid fitness for binding parS DNA": 0.228},
      {"variant": "MSFR", "one-hybrid fitness for binding parS DNA": "≤ 0.2"},
      {"variant": "VSAE", "one-hybrid fitness for binding parS DNA": "≤ 0.2"},
      {"variant": "DAIE", "one-hybrid fitness for binding parS DNA": "≤ 0.2"},
      {"variant": "LDKA", "one-hybrid fitness for binding parS DNA": "≤ 0.2"},
      {"variant": "LNVW", "one-hybrid fitness for binding parS DNA": "≤ 0.2"},
      {"variant": "TSQK", "one-hybrid fitness for binding parS DNA": "≤ 0.2"},
      {"variant": "NGII", "one-hybrid fitness for binding parS DNA": "≤ 0.2"},
      {"variant": "QSEK", "one-hybrid fitness for binding parS DNA": "≤ 0.2"},
      {"variant": "YWHI", "one-hybrid fitness for binding parS DNA": "≤ 0.2"},
      {"variant": "HHYS", "one-hybrid fitness for binding parS DNA": "≤ 0.2"},
      {"variant": "KAHD", "one-hybrid fitness for binding parS DNA": "≤ 0.2"},
      {"variant": "HMPD", "one-hybrid fitness for binding parS DNA": "≤ 0.2"},
      {"variant": "QQKP", "one-hybrid fitness for binding parS DNA": "≤ 0.2"},
      {"variant": "TNEV", "one-hybrid fitness for binding parS DNA": "≤ 0.2"},
      {"variant": "FTMR", "one-hybrid fitness for binding parS DNA": "≤ 0.2"},
      {"variant": "TTQQ", "one-hybrid fitness for binding parS DNA": "≤ 0.2"},
      {"variant": "YDSN", "one-hybrid fitness for binding parS DNA": "≤ 0.2"},
      {"variant": "AYSH", "one-hybrid fitness for binding parS DNA": "≤ 0.2"},
      {"variant": "RWRI", "one-hybrid fitness for binding parS DNA": "≤ 0.2"},
      {"variant": "TQLV", "one-hybrid fitness for binding parS DNA": "≤ 0.2"},
      {"variant": "PMQV", "one-hybrid fitness for binding parS DNA": "≤ 0.2"},
      {"variant": "RVPH", "one-hybrid fitness for binding parS DNA": "≤ 0.2"},
      {"variant": "LIRD", "one-hybrid fitness for binding parS DNA": "≤ 0.2"},
      {"variant": "KLLY", "one-hybrid fitness for binding parS DNA": "≤ 0.2"},
      {"variant": "ALLQ", "one-hybrid fitness for binding parS DNA": "≤ 0.2"},
      {"variant": "FTAL", "one-hybrid fitness for binding parS DNA": "≤ 0.2"},
      {"variant": "IASC", "one-hybrid fitness for binding parS DNA": "≤ 0.2"},
      {"variant": "RYVC", "one-hybrid fitness for binding parS DNA": 0.907},
      {"variant": "RRQM", "one-hybrid fitness for binding parS DNA": 0.324},
      {"variant": "AHET", "one-hybrid fitness for binding parS DNA": "≤ 0.2"},
      {"variant": "PSNL", "one-hybrid fitness for binding parS DNA": "≤ 0.2"},
      {"variant": "DPDS", "one-hybrid fitness for binding parS DNA": "≤ 0.2"},
      {"variant": "RFDC", "one-hybrid fitness for binding parS DNA": 0.793},
      {"variant": "HGNL", "one-hybrid fitness for binding parS DNA": "≤ 0.2"},
      {"variant": "MVLN", "one-hybrid fitness for binding parS DNA": "≤ 0.2"},
      {"variant": "PPGT", "one-hybrid fitness for binding parS DNA": "≤ 0.2"},
      {"variant": "DFCR", "one-hybrid fitness for binding parS DNA": "≤ 0.2"},
      {"variant": "YSPC", "one-hybrid fitness for binding parS DNA": "≤ 0.2"},
      {"variant": "DTVS", "one-hybrid fitness for binding parS DNA": "≤ 0.2"},
      {"variant": "RVIP", "one-hybrid fitness for binding parS DNA": "≤ 0.2"},
      {"variant": "FWKS", "one-hybrid fitness for binding parS DNA": "≤ 0.2"},
      {"variant": "TDMC", "one-hybrid fitness for binding parS DNA": "≤ 0.2"},
      {"variant": "VTVY", "one-hybrid fitness for binding parS DNA": "≤ 0.2"},
      {"variant": "TWVR", "one-hybrid fitness for binding parS DNA": "≤ 0.2"},
      {"variant": "KWKD", "one-hybrid fitness for binding parS DNA": "≤ 0.2"},
      {"variant": "NRKF", "one-hybrid fitness for binding parS DNA": "≤ 0.2"},
      {"variant": "SCTR", "one-hybrid fitness for binding parS DNA": "≤ 0.2"},
      {"variant": "AYHT", "one-hybrid fitness for binding parS DNA": "≤ 0.2"},
      {"variant": "PVAS", "one-hybrid fitness for binding parS DNA": "≤ 0.2"},
      {"variant": "TGPK", "one-hybrid fitness for binding parS DNA": "≤ 0.2"},
      {"variant": "EKNG", "one-hybrid fitness for binding parS DNA": "≤ 0.2"},
      {"variant": "NGTC", "one-hybrid fitness for binding parS DNA": "≤ 0.2"},
      {"variant": "QPPG", "one-hybrid fitness for binding parS DNA": "≤ 0.2"},
      {"variant": "MRMM", "one-hybrid fitness for binding parS DNA": "≤ 0.2"},
      {"variant": "CDMS", "one-hybrid fitness for binding parS DNA": "≤ 0.2"},
      {"variant": "HRPI", "one-hybrid fitness for binding parS DNA": "≤ 0.2"},
      {"variant": "HELN", "one-hybrid fitness for binding parS DNA": "≤ 0.2"},
      {"variant": "RGNR", "one-hybrid fitness for binding parS DNA": "≤ 0.2"},
      {"variant": "SHRE", "one-hybrid fitness for binding parS DNA": "≤ 0.2"},
      {"variant": "EDKF", "one-hybrid fitness for binding parS DNA": "≤ 0.2"},
      {"variant": "QYVL", "one-hybrid fitness for binding parS DNA": "≤ 0.2"},
      {"variant": "RNMR", "one-hybrid fitness for binding parS DNA": "≤ 0.2"},
      {"variant": "YGTF", "one-hybrid fitness for binding parS DNA": "≤ 0.2"},
      {"variant": "LLCM", "one-hybrid fitness for binding parS DNA": "≤ 0.2"},
      {"variant": "NMFI", "one-hybrid fitness for binding parS DNA": "≤ 0.2"},
      {"variant": "RYEA", "one-hybrid fitness for binding parS DNA": 0.548},
      {"variant": "QNMW", "one-hybrid fitness for binding parS DNA": "≤ 0.2"},
      {"variant": "GKNC", "one-hybrid fitness for binding parS DNA": "≤ 0.2"},
      {"variant": "ESHC", "one-hybrid fitness for binding parS DNA": "≤ 0.2"},
      {"variant": "QDEN", "one-hybrid fitness for binding parS DNA": "≤ 0.2"},
      {"variant": "WGFP", "one-hybrid fitness for binding parS DNA": "≤ 0.2"},
      {"variant": "VAMM", "one-hybrid fitness for binding parS DNA": "≤ 0.2"},
      {"variant": "YECS", "one-hybrid fitness for binding parS DNA": "≤ 0.2"},
      {"variant": "GNVC", "one-hybrid fitness for binding parS DNA": "≤ 0.2"},
      {"variant": "RDPT", "one-hybrid fitness for binding parS DNA": "≤ 0.2"}
    ]}
  ]
}
